# PubChem BioAssay AID504332 (National Center for Advancing Translational Sciences (NCATS), 2011)
# Screen size: about 350,000 compounds; about 31,000 (8.9%) were called active. The shares of active, inactive and inconclusive entries below differ from those in the screen. Calls follow the shape of the dose curve; as a rule, active = well fitted inhibition curve with a large enough effect; inconclusive = small, poorly fitted or top-dose-only effect; inactive = no such curve, though single readings can be large or run the other way. A potency beside an inconclusive call is a rough fit, not a confirmed value.
# Target: Histone-lysine N-methyltransferase EHMT2 (Homo sapiens) (UniProt Q96KQ7)
# Assay: qHTS Assay for Inhibitors of Histone Lysine Methyltransferase G9a; also: nearly all actives have a fitted effect of over 75% in size
# Settings: G9a H3K9 monomethylation, AlphaScreen, 2 h; activity, negative = inhibition: at 59 µM (top of the series) unless noted
# Method in brief: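 G9a (20 nM) was preincubated 15 min with compound, then reacted 2 h at room temperature with 500 nM biotin-H3K9 peptide and 20 µM SAM. Monomethyl-H3K9 detected by AlphaScreen using anti-H3K9me1 antibody.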
# % is scaled to controls: 0 for no effect and ±100 for the full control effect; potency is read from the fitted curve at half-maximal effect; tags tell the direction and shape of the fitted curve.
# UniProt Q96KQ7, sequence (Q96KQ7 whole entry, looked up): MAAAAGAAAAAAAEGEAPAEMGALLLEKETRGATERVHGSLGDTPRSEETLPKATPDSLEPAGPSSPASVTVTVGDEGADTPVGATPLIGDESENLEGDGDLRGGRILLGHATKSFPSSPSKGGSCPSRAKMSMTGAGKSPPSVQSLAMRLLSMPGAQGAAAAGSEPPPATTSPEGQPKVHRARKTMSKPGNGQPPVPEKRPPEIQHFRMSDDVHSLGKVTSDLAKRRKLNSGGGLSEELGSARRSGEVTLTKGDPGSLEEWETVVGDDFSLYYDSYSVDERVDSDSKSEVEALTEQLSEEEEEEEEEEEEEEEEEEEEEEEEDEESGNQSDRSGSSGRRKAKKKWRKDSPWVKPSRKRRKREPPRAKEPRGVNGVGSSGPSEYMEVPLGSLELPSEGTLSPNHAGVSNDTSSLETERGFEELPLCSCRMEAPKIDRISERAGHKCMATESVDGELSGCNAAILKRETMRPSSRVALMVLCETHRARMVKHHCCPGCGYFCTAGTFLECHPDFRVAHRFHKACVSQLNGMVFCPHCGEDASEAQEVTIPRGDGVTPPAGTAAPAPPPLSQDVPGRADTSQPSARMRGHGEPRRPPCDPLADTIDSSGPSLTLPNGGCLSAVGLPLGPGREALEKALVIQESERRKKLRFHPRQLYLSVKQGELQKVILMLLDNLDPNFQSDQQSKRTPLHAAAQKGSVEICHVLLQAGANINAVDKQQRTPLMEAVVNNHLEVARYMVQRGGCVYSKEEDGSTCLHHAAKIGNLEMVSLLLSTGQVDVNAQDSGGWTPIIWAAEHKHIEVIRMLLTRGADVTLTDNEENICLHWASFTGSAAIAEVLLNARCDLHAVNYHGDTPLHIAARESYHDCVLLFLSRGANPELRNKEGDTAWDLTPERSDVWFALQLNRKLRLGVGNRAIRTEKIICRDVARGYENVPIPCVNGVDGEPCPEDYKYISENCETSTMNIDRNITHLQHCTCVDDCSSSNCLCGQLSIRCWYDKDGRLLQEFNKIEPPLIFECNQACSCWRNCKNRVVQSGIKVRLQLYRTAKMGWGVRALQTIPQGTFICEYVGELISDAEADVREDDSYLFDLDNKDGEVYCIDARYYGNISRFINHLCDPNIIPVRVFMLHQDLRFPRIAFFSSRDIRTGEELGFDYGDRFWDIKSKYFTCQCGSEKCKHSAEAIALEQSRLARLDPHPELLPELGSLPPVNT
Compound,Potency,"activity, negative = inhibition"
CCC1Oc2ccc(C)cc2N(CC(=O)N(Cc2cccnc2)Cc2ccc(C)o2)C1=O (stereo not given),"inconclusive: 4.47 µM [inhibitor, single point]",–
N#CCCN(C(=O)COC(=O)c1ccc(S(=O)(=O)N2CCCC2)cc1)c1cccc(Cl)c1,–,inactive: -20.1% [at 12.7 µM]
CCOC(=O)c1cc(-c2ccc(F)cc2)n(CCC(=O)NCc2ccc(C)cc2)c1C,–,inactive: -35.5%
CN1CCN(C(=O)C2CCC(CNS(=O)(=O)c3cccc4cccnc34)CC2)CC1 (stereo not given),"inconclusive: 56.2 µM [inhibitor, partial curve, poor fit]",–
O=C(Cn1ccc([N+](=O)[O-])n1)N1CCCc2ccccc21,–,inconclusive: -65.3% [inhibitor]
Cc1ccc(-n2ncc(C(=O)N3CCN(c4cccc(C)c4C)CC3)c2C2CCNCC2)c(C)c1,"inconclusive: 28.2 µM [inhibitor, single point]",–
CCCOc1ccc(NC(=O)C2CC(=O)N3CCCN=C3S2)cc1 (stereo not given),"inconclusive: 35.5 µM [inhibitor, single point]",–
CC1Cc2ccccc2N1S(=O)(=O)c1cccc(C(=O)OCC(=O)NCc2ccco2)c1 (stereo not given),"inconclusive: 70.8 µM [inhibitor, partial curve, poor fit]",–
CCN(CC)S(=O)(=O)c1cccc(C(=O)OCC(=O)C23CC4CC(CC(C4)C2)C3)c1,"inconclusive: 35.5 µM [inhibitor, single point]",–
COc1ccc(C(=O)c2coc3ccc(O)c(CN4CCCC4)c23)cc1,"inconclusive: 89.1 µM [inhibitor, single point]",–
COC(=O)c1ccc(CSc2nc3c(c(=O)n2-c2ccccc2)SCC3)o1,"inconclusive: 79.4 µM [inhibitor, partial curve, poor fit]",–
CCCN1C(C(=O)c2ccccc2)=C(OC(=O)C(C)(C)C)c2ccccc2S1(=O)=O,–,inactive: -6.99%
CN1CCCN(C(=O)CC2(CC(=O)O)CCCC2)CC1,"inconclusive: 89.1 µM [inhibitor, single point]",–
N#Cc1cnc2sc3ccccc3n2c1=N,–,inactive: -9.71% [at 102 µM]
COc1ccccc1NC(=O)C1=C(C)Nc2nc(SCc3ccccc3Cl)nn2C1c1cccnc1 (stereo not given),–,inactive: 22.7%
O=C(CCNC(=O)c1ccc(Br)cc1)Nc1ccccc1N1CCCCC1,active: 56.2 µM,–
O=C(CN(Cc1ccccc1Cl)C(=O)Cn1nnc(-c2cccs2)n1)NCC1CCCO1 (stereo not given),"inconclusive: 89.1 µM [inhibitor, single point]",–
COc1ccc(-c2nnc3sc(C4CCCCC4)nn23)cc1OC,–,inconclusive: -71.7% [inhibitor]
COc1ccccc1/C=N/Nc1cc(C)nc2ccc(C)cc12,"inconclusive: 70.8 µM [inhibitor, partial curve, poor fit]",–
COc1cccc(-n2c(=S)sc3c(=O)n(-c4ccccc4OC)c(=S)[nH]c32)c1,"inconclusive: 7.94 µM [inhibitor, full curve]",–
Cc1cc(C(=O)COC(=O)CNC(=O)c2ccccc2)c(C)n1CC1CCCO1 (stereo not given),"inconclusive: 8.91 µM [inhibitor, partial curve, poor fit]",–
O=C(Nc1ccc(S(=O)(=O)N2CCCC2)cc1)N1c2ccccc2Sc2ccccc21,"inconclusive: 50.1 µM [inhibitor, partial curve]",–
O=C(O)CCNS(=O)(=O)c1ccc2ccccc2c1,–,inactive: 19.3% [at 102 µM]

Compound,Potency,"activity, negative = inhibition"
O=C(COC(=O)c1cnc(Cl)c(Cl)c1)Nc1ccc(S(=O)(=O)N2CCCC2)cc1,–,inactive: -5.55% [at 102 µM]
Cc1cc(C)c2nc(Cl)c(Cl)nc2c1,"inconclusive: 89.1 µM [inhibitor, partial curve, poor fit]",–
O=C(N/N=C\c1cc([N+](=O)[O-])ccc1N1CCCC1)c1ccccn1,–,inactive: -9.38% [at 102 µM]
COc1ccc(C2=NN(c3nc(-c4ccccc4)c(CC(=O)O)s3)C(c3ccco3)C2)cc1 (stereo not given),active: 14.1 µM,–
N#Cc1c(N)n(CCc2ccc(F)cc2)c2nc3ccccc3nc12,–,inactive: 8.99% [at 102 µM]
COc1ccc(NC(=O)c2nn(C)c(C(=O)Nc3ccc(OC)cc3)c2[N+](=O)[O-])cc1,–,inactive: -7.16% [at 102 µM]
Cc1cccc(-n2c(SCc3ccc([N+](=O)[O-])cc3)nnc2-c2c[nH]c3ccccc23)c1,active: 44.7 µM,–
COC(=O)C1=C(C(=O)OC)SC2(S1)C(C(=O)OC)=C(C(=O)OC)SC1=C2c2cc(C)ccc2NC1(C)C,"inconclusive: 1.78 µM [inhibitor, partial curve, poor fit]",–
CCOC(=O)C1CCN(C(=O)Cn2nc(CC)n3c(cc4occc43)c2=O)CC1,–,inactive: 9.06%
Cc1c(C)c2c(c(C)c1O)CCC(C)(C(=O)O)O2 (stereo not given),active: 14.1 µM,–
c1ccc(Cc2ccc(OCCn3cncn3)cc2)cc1,–,inactive: -33.7% [at 102 µM]
Cc1ccc(CN2C(=O)N(c3ccc(C)c(Cl)c3)S(=O)(=O)c3ccccc32)cc1,–,inactive: 0.195%
Cn1c2ccccc2c2nnc(SCCN3CCOCC3)nc21,active: 50.1 µM,–
Cc1ccc(OCC(=O)OCC(=O)Nc2sccc2C(N)=O)cc1C,"inconclusive: 89.1 µM [inhibitor, single point]",–
COc1ccc(C(=O)CSc2nnc(-c3ccoc3C)n2CC2CCCO2)cc1 (stereo not given),"inconclusive: 20 µM [inhibitor, single point]",–
COc1ccc(CNC(=O)CCS(=O)(=O)c2ccc3c(c2)CC(C)N3C(=O)C2CC2)cc1 (stereo not given),–,inactive: -4.8%
CCC(=O)c1ccc(OCC(=O)OCC(=O)NCCC2=CCCCC2)cc1,–,inactive: -24.6% [at 102 µM]
O=C1C(=O)N(CC2CCCO2)C(c2ccco2)/C1=C(/O)c1ccc(F)cc1 (stereo not given),"inconclusive: 39.8 µM [inhibitor, single point]",–
Cc1cc(C(=O)CSc2nnc(-c3cccs3)n2Cc2ccccc2)c(C)n1C,"inconclusive: 28.2 µM [inhibitor, single point]",–
COc1ccccc1CC(=O)Nc1sc2c(c1C(N)=O)CCCC2,"inconclusive: 89.1 µM [inhibitor, single point]",–
O=C(Nc1ccc(Cl)cc1C(F)(F)F)c1cc(S(=O)(=O)NCc2ccccc2)ccc1F,–,inactive: 9.69%
Cc1c(N2CCCC2)cc2c(c1N)C(C)(C)CC2(C)C,active: 35.5 µM,–
